Drawing on the supplement of paper PMC10441789, this text covers antibody binding signal for 40 sequences.

The list shows a part of the results. Antibody binding of pooled human sera (four to six donors per pool; dilution not stated) to peptides of the Trypanosoma cruzi antigen TSSA on microarrays. Quantile-normalised fluorescence in arbitrary units, mean of duplicate arrays; higher = more binding. No active / inactive call. The uninfected pools are read here as the healthy donors of the same country. The strongest signals lie near the top of the scale (about 60,000).

In the assay the test system is pooled sera of chronic Chagas disease patients, Argentina. In words: antibody binding signal (normalised fluorescence) (arbitrary fluorescence units); higher = stronger serum antibody binding to peptide. Here is the method:
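Microarray of 15-residue peptides over residues 30-55 of Trypanosoma cruzi TSSAII, each with 1 to 10 substitutions at naturally variable positions, probed with one serum pool per country.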
KEKKPAAGETPSQSG returned an antibody binding signal of 176.

The sequence GTDNKTAAGGAPSPP had an antibody binding signal of 248.

For the sequence PPSGTDNKPAAGETP, the antibody binding signal came out at 34800.

In the case of DNKPATGGAPSQSGA, the antibody binding signal was 776.

Sequence GTDNKPATGGAPSQS displayed an antibody binding signal of 3900.

The sequence PSGKDKKPATGEAPS displayed an antibody binding signal of 45200.

Sequence GKENKAATGETPSQS displayed an antibody binding signal of 11500.

Consider GKEKKPATGGAPSPP, for which the antibody binding signal was 4650.

As to KENKAATGEAPSPPG, the antibody binding signal was determined as 24000.

Take SGTEKKAATGEAPSP: the antibody binding signal came out at 22300.

As for KENKAAAGEAPSPSG, the antibody binding signal is 190.

GTDNKPAAGEAPSPP registered an antibody binding signal of 3670.

Regarding DNKPATGEAPSPSGA, the antibody binding signal was 44400.

PPSGKDNKPATGETP registered an antibody binding signal of 36300.

Consider GTEKKPATGGTPSPP, for which the antibody binding signal is 1940.

TEKKTAAGEAPSQSG gave an antibody binding signal of 886.

The sequence KKPAAGETPSQSGAS came in with an antibody binding signal of 202.

As to KDKKPAAGETPSQSG, the antibody binding signal turned out to be 162.

As for KKPATGEAPSQSGAS, the antibody binding signal amounted to 23800.

SGKENKAAAGEAPSP: the antibody binding signal was 4290.

TPPSGTDNKAAAGEA came in with an antibody binding signal of 44600.

The sequence SGTEKKAATGGTPSP returned an antibody binding signal of 1960.

Consider TPPSGKDKKAATGEA, for which the antibody binding signal came to 8290.

The sequence GTDKKTATGGAPSPP gave an antibody binding signal of 1110.

The sequence NKTATGETPSQSGAS displayed an antibody binding signal of 876.

The sequence GKDKKPAAGGAPSQP had an antibody binding signal of 209.

For the sequence EKKPAAGGTPSPPGA, the antibody binding signal came out at 466.

Sequence TSSTPPSGKENKTAT registered an antibody binding signal of 17500.

SGKENKAATGGAPSQ displayed an antibody binding signal of 3100.

Consider DKKTAAGGAPSQPGA, for which the antibody binding signal stood at 392.

With PSGKDKKTATGEAPS, the antibody binding signal came out at 11100.

Sequence TDKKAATGEAPSQSG registered an antibody binding signal of 21400.

KDKKAATGEAPSQPG displayed an antibody binding signal of 9700.

In turn, KDNKPAAGETPSQSG had an antibody binding signal of 379.

Sequence KKTATGEAPSQPGAS displayed an antibody binding signal of 4920.

For the sequence PPSGTDNKTATGGTP, the antibody binding signal worked out at 24000.

TEKKAAAGETPSQPG: the antibody binding signal came to 1790.

As for GTEKKAATGGAPSPP, the antibody binding signal came to 1480.

On to KEKKTATGETPSPSG, for which the antibody binding signal was determined as 206.

Sequence SGKEKKPAAGEAPSP yielded an antibody binding signal of 12200.
